Screen size: about 310,000 compounds; about 2,200 (0.71%) showed an effect of 50% or more. The effect is printed as a negative number. This is one part of the list.

This is an account of results in PMC4336329 (PLoS ONE, 2015).

Sequence of human ether-à-go-go-related gene (hERG) potassium channel (Q12809 whole entry, looked up): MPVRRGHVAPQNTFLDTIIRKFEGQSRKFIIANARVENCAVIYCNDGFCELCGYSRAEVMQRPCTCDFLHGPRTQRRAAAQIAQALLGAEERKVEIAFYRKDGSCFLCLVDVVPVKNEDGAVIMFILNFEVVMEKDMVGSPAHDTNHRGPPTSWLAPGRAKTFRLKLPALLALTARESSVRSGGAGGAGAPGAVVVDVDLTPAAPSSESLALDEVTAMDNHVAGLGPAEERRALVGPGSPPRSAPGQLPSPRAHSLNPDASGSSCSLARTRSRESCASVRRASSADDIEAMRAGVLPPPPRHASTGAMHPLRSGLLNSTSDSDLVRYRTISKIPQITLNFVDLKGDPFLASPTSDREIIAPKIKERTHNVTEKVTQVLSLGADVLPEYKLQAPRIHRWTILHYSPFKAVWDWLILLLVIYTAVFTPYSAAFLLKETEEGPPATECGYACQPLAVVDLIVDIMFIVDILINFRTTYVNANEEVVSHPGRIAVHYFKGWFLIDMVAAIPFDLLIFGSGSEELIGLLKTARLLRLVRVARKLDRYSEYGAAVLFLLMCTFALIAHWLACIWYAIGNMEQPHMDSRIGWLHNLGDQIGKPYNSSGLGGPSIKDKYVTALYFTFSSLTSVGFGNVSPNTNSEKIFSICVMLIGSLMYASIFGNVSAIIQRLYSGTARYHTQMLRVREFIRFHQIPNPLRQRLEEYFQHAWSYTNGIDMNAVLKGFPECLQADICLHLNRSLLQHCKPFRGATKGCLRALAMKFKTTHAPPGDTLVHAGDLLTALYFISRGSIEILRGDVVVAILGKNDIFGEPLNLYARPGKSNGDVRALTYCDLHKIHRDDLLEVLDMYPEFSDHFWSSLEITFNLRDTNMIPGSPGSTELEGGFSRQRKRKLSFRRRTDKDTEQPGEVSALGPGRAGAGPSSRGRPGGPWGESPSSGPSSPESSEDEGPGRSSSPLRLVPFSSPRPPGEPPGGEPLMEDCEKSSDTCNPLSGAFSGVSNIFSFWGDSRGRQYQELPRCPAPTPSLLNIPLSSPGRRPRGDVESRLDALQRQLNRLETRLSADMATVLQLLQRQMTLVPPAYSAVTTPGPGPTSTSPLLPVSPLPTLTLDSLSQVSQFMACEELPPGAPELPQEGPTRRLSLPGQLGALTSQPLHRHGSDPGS

The test concerns the target human ether-à-go-go-related gene (hERG) potassium channel (human, UniProt Q12809). In words: primary screen, population patch clamp on CHO cells stably expressing hERG.
In the case of `Nc1c(C(=O)N/N=C/c2cccnc2)oc2nc(-c3ccccc3)cc(-c3ccco3)c12`, the “hERG current change (%, negative = inhibition) at 1uM” value is 10.9%.

In the case of `COc1ccc(-n2nc(C(=O)NCC(=O)NCCCN3CCN(C)CC3)c3ccccc3c2=O)cc1`, the “hERG current change (%, negative = inhibition) at 1uM” value stood at 1.39%.

As for `OCCN(CCO)c1ccc(C(c2ccccc2Cl)c2ccc(N(CCO)CCO)cc2Cl)c(Cl)c1`, the “hERG current change (%, negative = inhibition) at 1uM” value is given as 10.8%.

For `CCc1c(C#N)sc(C(N)=O)c1CC`, the “hERG current change (%, negative = inhibition) at 1uM” value amounted to 1.19%. The figure for `Cc1ccc(C2NC(=O)c3ccccc3N2)s1` (stereo not drawn) is 6.42%.

Take `Cn1ncc2c(Nc3ccccc3Cl)nc(Nc3ccccc3Cl)nc21`: the “hERG current change (%, negative = inhibition) at 1uM” value is reported as 10.4%. The figure for `O=C(O)CSc1c[nH]c2ccccc12` is 7.93%; for `COc1ccccc1CNC(=S)Nc1cc(C)ccc1C` it is 8.07%. The figure for `c1ccc2c(CSCc3nc4ccccc4[nH]3)cccc2c1` is -3.41%; for `CC1=CN2C(=N)/C(=C\c3cn(CCCOc4ccccc4)c4ccccc34)C(=O)N=C2S1` it is 8.13%; for `O=C(O)c1ccc(NC(=O)c2cccs2)cc1` it is 12.6%. The figure for `CCOc1cc(C(=O)CCC(=O)OCC(=O)Nc2ccc(C)c(S(=O)(=O)N(C)C)c2)ccc1O` is 9.83%. For `COc1ccc(-c2ccccc2NC(=O)C2CCCN(Cc3ccc(C)o3)C2)cc1` (stereo not drawn), the “hERG current change (%, negative = inhibition) at 1uM” value came to 11.7%. The figure for `CC1(C)CC(=O)c2cc(OCC(=O)NCCN3CCOCC3)ccc2O1` is 16.6%; for `Cn1cc(CCC(=O)NC2CC2)c2ccccc21` it is 5.81%; for `CC1CCCN(C(=O)C2CCN(Cc3ccc4c(c3)OCO4)CC2)C1.O=C(O)C(=O)O` (stereo not drawn) it is 11%. The figure for `CC(Oc1ccccc1)C(=O)NC1CCSc2ccccc21` (stereo not drawn) is 7.69%; for `Cc1ccc2c(c1)N(CC(=O)N1CCOCC1)C(=O)C(C)O2` (stereo not drawn) it is 11.7%; for `CC(C)[C@H]1COC(NC2=N[C@@H](C(C)C)CO2)=N1` it is 7.94%. The figure for `COc1ccc(NS(=O)(=O)c2cccc(C(=O)NNC(=O)CNC(=O)c3ccccc3F)c2)cc1` is -6.72%. In the case of `Cc1ccc(Cc2nnc(SCC(=O)Nc3ccccc3Cl)[nH]c2=O)cc1`, the “hERG current change (%, negative = inhibition) at 1uM” value came to 1.62%. The figure for `CC(=O)Nc1ccc(N/C(=N\S(=O)(=O)c2ccccc2)c2ccccc2)cc1` is 11.7%. As to `COc1ccccc1N1CCN(CC(C)N(C(=O)C2CCCCC2)c2ccccn2)CC1` (stereo not drawn), the “hERG current change (%, negative = inhibition) at 1uM” value turned out to be 2.25%.

In the case of `CCN(CC)c1ccc(NC(=O)CCc2nnc3ccc(N4CCCCC4)nn23)c(C)c1`, the “hERG current change (%, negative = inhibition) at 1uM” value is reported as 1.63%. The figure for `O=C(O)c1cc(-c2ccc(Br)s2)nc2ccccc12` is 18.3%. The figure for `COc1ccc(OC)c(NC(=O)CNC(=O)c2cccs2)c1` is 12%; for `CCCCN(C(=O)CC1CCCC1)c1c(N)n(CC(C)C)c(=O)[nH]c1=O` it is -18.7%; for `CCOC(=O)C1(CCCc2ccccc2)CCN(C(=O)CN2CCOC2=O)CC1` it is -3.4%. The figure for `Oc1oc(-c2ccccc2)nc1/C=N/c1ccccn1` is 11%; for `CC(C)[C@H](NC(=O)[C@@H]1Cc2ccccc2CN1)C(=O)Nc1ccc2c(c1)OCCO2` it is 3.13%; for `O=C(CNC(=O)Cc1cccc2ccccc12)NCc1ccc(F)cc1` it is 11.7%.

`CCN(CC)CC(=O)Nc1sc(C)cc1C(=O)c1ccc(C)cc1`: the “hERG current change (%, negative = inhibition) at 1uM” value amounted to 2.7%. For the compound `COc1cccc(OC)c1C(=O)OCC(=O)NCc1ccco1`, the “hERG current change (%, negative = inhibition) at 1uM” value was determined as 10.3%. The figure for `Cc1cc(NC(=O)C2CC(=O)N(c3ccc(F)cc3)C2)no1` (stereo not drawn) is 4.12%; for `O=C(CCc1nnc(C2CCCCC2)o1)NCc1cccc(-n2cccn2)c1` it is 16.4%; for `CN(C)S(=O)(=O)c1cccc(NC(=S)NCc2ccco2)c1` it is 27.1%. The figure for `COC(=O)C1CSC(C(=O)OC)N1C(=O)Nc1c(C)cccc1C` (stereo not drawn) is 5.66%; for `CCn1cc(/C=C(\NC(=O)c2ccccc2F)C(=O)N2CCCC2)c2ccccc21` it is 6.3%. The figure for `CCc1nnc(NC(=O)C2COc3ccccc3O2)s1` (stereo not drawn) is 2.41%.

For the compound `CC1(C)C(C(=O)NN2C(=O)c3ccccc3C2=O)C1(C)C`, the “hERG current change (%, negative = inhibition) at 1uM” value was determined as 12.8%.

As to `C=CCn1c(SCC(N)=O)nc2scc(-c3ccc(C)o3)c2c1=O`, the “hERG current change (%, negative = inhibition) at 1uM” value is on record as 0.329%.

Take `NC1=NC(=O)C(Cc2ccccc2)S1` (stereo not drawn): the “hERG current change (%, negative = inhibition) at 1uM” value was 5.86%. The figure for `COc1cc2c(cc1OC)-c1nnc(-c3cccs3)n1C1(CCCC1)C2` is 5.8%. The figure for `COc1ccc(S(=O)(=O)NC2CC(=O)N(c3ccc(C)c(C)c3)C2)cc1C` (stereo not drawn) is 9.54%; for `CCCS(=O)(=O)N1CCN(C(=O)CCC2CCCC2)CC1` it is 2.43%; for `COc1ccc(Cl)cc1C(=O)C1CCCN(Cc2cnc(N3CCOCC3)s2)C1` (stereo not drawn) it is -24.7%. The figure for `Cc1c(CNC2CCCC(C)C2C)c(C(=O)O)c(C)n1Cc1ccccc1` (stereo not drawn) is 16%. For the compound `Cc1nc(NC(=O)c2ccco2)sc1-c1csc(Nc2ccc(Cl)cc2)n1`, the “hERG current change (%, negative = inhibition) at 1uM” value worked out at 14.6%. As to `CCCCCCNC(=O)c1cccc(-c2ccc(C)c3ccccc23)n1`, the “hERG current change (%, negative = inhibition) at 1uM” value is -5.6%. `CCOC(=O)c1c(S(=O)(=O)NCC(=O)NCc2ccccc2Cl)c(C)n(C)c1C`: the “hERG current change (%, negative = inhibition) at 1uM” value is given as 7.51%. The figure for `CC12CC(NC(=O)N1Cc1ccccc1)c1ccccc1O2` (stereo not drawn) is 2.79%; for `O=C(c1cccc(S(=O)(=O)N2CCCCC2)c1)N1CCOCC1` it is 4.48%; for `COc1ccc(/C=C\c2nc(O)c([N+](=O)[O-])c(=O)[nH]2)cc1O` it is 11.2%. Regarding `COCCOC(=O)c1[nH]c2c(c1C)C(=O)CC(c1ccco1)C2` (stereo not drawn), the “hERG current change (%, negative = inhibition) at 1uM” value came to 1.23%. The figure for `CS(=O)(=O)N(Cc1ccco1)CC(O)Cn1cc(C=O)c2ccccc21` (stereo not drawn) is -0.274%; for `Cc1cccc(NC(=S)N/N=C/c2ccc([N+](=O)[O-])s2)c1` it is 11.2%; for `NC(=O)c1ccc(-n2nnnc2SCC(=O)Nc2ccc(F)cc2)cc1` it is 25.3%.
